# Test results: patent EP1214397B1, “METHOD FOR THE SELECTIVE PROTECTION OF PROLIFERATING NORMAL CELLS AND THE SELECTIVE ERADICATION OF TUMOR CELLS HAVING AN INACTIVE P53 PATHWAY” (UNIVERSITA' DEGLI STUDI DI ROMA "LA SAPIENZA", priority 1999, dated 2001)
# Tests used:
# normal cells = test: Dose/response: concentration arresting normal cells in the intermitotic phase (CAP); type: cell-based; conditions: standard conditions
# Protocol: It generally results in cell cycle arrest at the binucleate stage in at least 40% of class A compounds treated proliferating normal cells, using the minimal drug concentration (i.e. sufficient to reversible induce its effects, on target cells, without causing significant damage, experimentally defined by dose/response curves), giving the above result without significant toxicity and an incubation time generally ranging from 12 to 48 hours depending on cell type.
# As to the CAP parameter, the corresponding value is a class A compound concentration causing the arrest of at least the 40% of normal cells in the intermitotic stage; such concentration is experimental deduced by dose/response experiments that define the appropriate value range for different cell types and compounds.
# For the above class A compounds, under standard conditions this value ranges within 1 nM to 40 µM concentrations.. Under standard conditions for instance, the CAP value for cytochalasin D is preferably comprised within the range 20 nM-2 µM, and in a preferred embodiment it is of 400 nM.; for the dihydrocytochalasin B, it is comprised in the range 600 nM - 8µM, and in a preferred embodiment it is of 2µM; for the jasplakinolide, it is comprised in the range 50 nM - 3µM and in a preferred embodiment it is of 700nM; for the latrunculin B it is comprised in the range 500nM - 2 µM and in a preferred embodiment it is of 650nM; for the chondramide B, it is comprised in the range 10 - 800 nM and in a preferred embodiment it is of 100nM. Said preferred concentrations are the CAP value corresponding to the minimum concentration under standard conditions required for reaching the arrest in intermitotic phase of the normal cells to be protected (minimum functional concentration), but could also be higher.
# In the light of these tests, the CAP and CACT values to be assigned to several class A compounds as the concentration range yielding the cytodieresis arrest, and, within said concentration range, the value of the minimum concentration required for attaining this effect, forming the preferred embodiment, has been determined. These values are those reported in the summary of the invention.
# [1] = system: Lipari, T97 and U973 glioblastomas; test: Nucleation state of human tumor cells after class A compounds (Example 12); type: cell-based; conditions: 48 h; 400 nM cytochalasin D, 650 nM Latrunculin B, 700 nM Jasplakinolide, 100 nM Chondramide B
# Protocol: All the assays above described, have been carried out in a system specifically designed to reproduce pathological situations in human beings in vivo.
# Culture and experimental conditions are identical to those reported in example 1, except in that the cells used were Lipari, T97 and U973 glioblastomas and that nucleation state data were observed after the following treatments.
# In a first assay series, 400 nM cytochalasin D for 48 h (T0-T48), along with BrdU (T24-48) in the final 24 h for controlling the percentage of cells capable of entering S phase, has been administered to Lipari, T97 and U973 cells.
# In a second assay series, 650 nM Latrunculin B for 48 h (T0-T48) along with BrdU (T24-48) in the final 24 h for controlling the percentage of cells capable of entering S phase, has been administered to Lipari (Line 11), T97 (Line 12) and U973 (Line 13) cells.
# In a third assay series, 700 nM Jasplakinolide for 48 h (T0-T48), along with BrdU (T24-48) in the final 24 h for controlling the percentage of cells capable of entering S phase, has been administered to Lipari (Line 14), T97 (Line 15) and U973 (Line 16) cells.
# In a fourth assay series, 100 nM Chondramide B for 48 h (T0-T48), along with BrdU (T24-48) in the final 24 h for controlling the percentage of cells capable of entering S phase, has been administered to Lipari (Line 17), T97 (Line 18) and U973 (Line 19) cells.
# [2] = system: C3H10T1/2v-src/v-myc cells; type: cell-based, mouse; conditions: 4µCi/ml tritiated thymidine 5 h after 24 h drug (3000 nM CB, 400 nM CD, 650 nM Latrunculin B, 700 nM Jasplakinolide, 100 nM Condramide); control 505 cpm/µg
# Source text: In order to verify a possible interference on 3FT uptake by tumor cells, the compounds mentioned in example 7 have been assayed on C3H10T1/2v-src/v-myc cells, measuring the uptake of tritiated thymidine. It is well known in fact that the uptake mechanism of the latter and that of 3FT (and generally of antimetabolites) are the same (6).
# Cells have been plated in a 24-well plate, with a 5x10^4 cells/well and the assays have been carried out under standard culture conditions, as described in example 1.
# In a first assay 3000 nM CB for 24 h, in a second assay 400 nM CD for 24 h, in a third assays 650 nM Latrunculin B for 24 h, in a fourth assay 700 nM Jasplakinolide for 24 h and in a fifth assay 100 nM Condramide for 24 h, have been administered on the C3H10T1/2v-src/v-myc.
# After said administrations, a 4µCi/ml tritiated Thymidine uptake has been carried out for 5 h for each assay, the above mentioned compounds being still present. Cells have been therefore washed 2x with PBS, extracted with 5% cold trichloroacetic acid and subsequently NaOH-lysed.
# The various samples once additioned with scintillation liquid, have been analyzed in a β-counter. The emission values, normalized for the amount of proteins in each sample (quantified by Lowry method) are expressed in count values for min/microgram protein in column 3. As controls there have been considered: • a first C3H10T1/2v-src/v-myc cell culture let free to proliferate for the overall assay (12 h + 24 h + 5 h) the radioactivity thereof being determined at the β-counter. • a second C3H10T1/2v-src-myc cell culture let free to proliferate for the initial 12 h and for the pharmacological treatment assay (12 h + 24 h), then subjected to the uptake of 4µCi/ml tritiated thymidine for 5 h and subsequently subjected to uptake determination at the β-counter.
structure (smiles),measurement,setting,value
CO[C@@H]1C(=O)O[C@H](C)[C@@H](C)C=C(C)C[C@H](C)C(=O)N[C@@H](C)C(=O)N(C)[C@H](Cc2c(Cl)[nH]c3ccccc23)C(=O)NC1c1ccc(O)cc1 (stereo partly drawn) [Chondramide B],"CAP, minimum functional concentration for arrest in intermitotic phase of normal cells",normal cells,100 nM
same,multinucleation of human tumor cells,[1],induces multinucleation of tumor cells
same,"tritiated thymidine uptake, emission values",[2],562 cpm/µg
